Experimental data reported in the supplement of paper PMC8728848.
This is one part of the list.

How the values were obtained:
Assay in all cases: glycan array binding signal (z-score within array); higher = stronger binding
Conditions in all cases: glycan notation: IUPAC condensed, linker removed
[1] = target: Neu5Ac(a2-6)Gal(b1-4)GlcNAc(b1-2)Man(a1-3)[Neu5Ac(a2-3)Gal(b1-4)GlcNAc(b1-2)Man(a1-6)]Man(b1-4)GlcNAc(b1-4)GlcNAc
Method in brief: (§1)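 The Consortium for Functional Glycomics database supplied 3228 glycan arrays, of which those lacking an available protein sequence were dropped. The binding signal, a within-array Z-score, was averaged across arrays of the same protein sequence and across linkers. Negative scores can be read as non-binding.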

[2] = target: Neu5Ac(a2-6)Gal(b1-4)GlcNAc(b1-2)Man(a1-3)[Neu5Ac(a2-6)Gal(b1-4)GlcNAc(b1-2)Man(a1-6)]Man(b1-4)GlcNAc(b1-4)GlcNAc
Method in brief: as §1

[3] = target: Neu5Ac(a2-6)Gal(b1-4)GlcNAc(b1-2)Man(a1-3)[Neu5Ac(a2-6)Gal(b1-4)GlcNAc(b1-2)Man(a1-6)]Man(b1-4)GlcNAc(b1-4)[Fuc(a1-6)]GlcNAc
Method in brief: as §1

[4] = target: Neu5Ac(a2-6)Gal(b1-4)GlcNAc(b1-2)Man(a1-6)Man(b1-4)GlcNAc(b1-4)GlcNAc
Method in brief: as §1

[5] = target: Neu5Ac(a2-6)Gal(b1-4)GlcNAc(b1-2)Man(a1-6)[Gal(b1-4)GlcNAc(b1-2)Man(a1-3)]Man(b1-4)GlcNAc(b1-4)GlcNAc
Method in brief: as §1

[6] = target: Neu5Ac(a2-6)Gal(b1-4)GlcNAc(b1-2)Man(a1-6)[GlcNAc(b1-2)Man(a1-3)]Man(b1-4)GlcNAc(b1-4)GlcNAc
Method in brief: as §1

[7] = target: Neu5Ac(a2-6)Gal(b1-4)GlcNAc(b1-2)Man(a1-6)[Man(a1-3)]Man(b1-4)GlcNAc(b1-4)GlcNAc
Method in brief: as §1

[8] = target: Neu5Ac(a2-6)Gal(b1-4)GlcNAc(b1-2)[Neu5Ac(a2-6)Gal(b1-4)GlcNAc(b1-4)]Man(a1-3)[GlcNAc(b1-4)][Neu5Ac(a2-6)Gal(b1-4)GlcNAc(b1-2)[Neu5Ac(a2-6)Gal(b1-4)GlcNAc(b1-6)]Man(a1-6)]Man(b1-4)GlcNAc(b1-4)GlcNAc
Method in brief: as §1

[9] = target: Neu5Ac(a2-6)Gal(b1-4)GlcNAc(b1-2)[Neu5Ac(a2-6)Gal(b1-4)GlcNAc(b1-4)]Man(a1-3)[GlcNAc(b1-4)][Neu5Ac(a2-6)Gal(b1-4)GlcNAc(b1-4)Man(a1-6)]Man(b1-4)GlcNAc(b1-4)GlcNAc
Method in brief: as §1

[10] = target: Neu5Ac(a2-6)Gal(b1-4)GlcNAc(b1-2)[Neu5Ac(a2-6)Gal(b1-4)GlcNAc(b1-6)]Man(a1-6)[Neu5Ac(a2-6)Gal(b1-4)GlcNAc(b1-2)Man(a1-3)][GlcNAc(b1-4)]Man(b1-4)GlcNAc(b1-4)GlcNAc
Method in brief: as §1

[11] = target: Neu5Ac(a2-6)Gal(b1-4)GlcNAc(b1-3)Gal(b1-3)GlcNAc
Method in brief: as §1

[12] = target: Neu5Ac(a2-6)Gal(b1-4)GlcNAc(b1-3)Gal(b1-4)GlcNAc
Method in brief: as §1

[13] = target: Neu5Ac(a2-6)Gal(b1-4)GlcNAc(b1-3)Gal(b1-4)GlcNAc(b1-2)Man(a1-3)[Neu5Ac(a2-6)Gal(b1-4)GlcNAc(b1-3)Gal(b1-4)GlcNAc(b1-2)Man(a1-6)]GalNAc
Method in brief: as §1

[14] = target: Neu5Ac(a2-6)Gal(b1-4)GlcNAc(b1-3)Gal(b1-4)GlcNAc(b1-3)Gal(b1-4)GlcNAc
Method in brief: as §1

[15] = target: Neu5Ac(a2-6)Gal(b1-4)GlcNAc(b1-3)Gal(b1-4)GlcNAc(b1-3)Gal(b1-4)GlcNAc(b1-2)Man(a1-3)[Neu5Ac(a2-6)Gal(b1-4)GlcNAc(b1-3)Gal(b1-4)GlcNAc(b1-3)Gal(b1-4)GlcNAc(b1-2)Man(a1-6)]GalNAc
Method in brief: as §1

[16] = target: Neu5Ac(a2-6)Gal(b1-4)GlcNAc(b1-3)Gal(b1-4)GlcNAc(b1-3)GalNAc
Method in brief: as §1

[17] = target: Neu5Ac(a2-6)Gal(b1-4)GlcNAc(b1-3)Gal(b1-4)GlcNAc(b1-3)[Neu5Ac(a2-6)Gal(b1-4)GlcNAc(b1-3)Gal(b1-4)GlcNAc(b1-6)]GalNAc
Method in brief: as §1

[18] = target: Neu5Ac(a2-6)Gal(b1-4)GlcNAc(b1-3)Gal(b1-4)GlcNAc(b1-6)[Gal(b1-3)]GalNAc
Method in brief: as §1

[19] = target: Neu5Ac(a2-6)Gal(b1-4)GlcNAc(b1-3)Gal(b1-4)[Fuc(a1-3)]GlcNAc(b1-3)Gal(b1-4)[Fuc(a1-3)]GlcNAc
Method in brief: as §1

[20] = target: Neu5Ac(a2-6)Gal(b1-4)GlcNAc(b1-3)GalNAc
Method in brief: as §1

[21] = target: Neu5Ac(a2-6)Gal(b1-4)GlcNAc(b1-3)[Neu5Ac(a2-6)Gal(b1-4)GlcNAc(b1-6)]GalNAc
Method in brief: as §1

[22] = target: Neu5Ac(a2-6)Gal(b1-4)GlcNAc(b1-6)GalNAc
Method in brief: as §1

[23] = target: Neu5Ac(a2-6)Gal(b1-4)GlcNAc(b1-6)[Gal(b1-3)GlcNAc(b1-3)]Gal(b1-4)Glc
Method in brief: as §1

[24] = target: Neu5Ac(a2-6)Gal(b1-4)GlcNAc(b1-6)[Gal(b1-3)]GalNAc
Method in brief: as §1

[25] = target: Neu5Ac(a2-6)Gal(b1-4)GlcNAc6S
Method in brief: as §1

Neu5Ac(a2-6)GalNAc = target: Neu5Ac(a2-6)GalNAc
Method in brief: as §1

[26] = target: Neu5Ac(a2-6)GalNAc(b1-4)GlcNAc
Method in brief: as §1

[27] = target: Neu5Ac(a2-6)GalNAc(b1-4)GlcNAc6S
Method in brief: as §1

[28] = target: Neu5Ac(a2-6)GlcNAc(b1-4)GlcNAc
Method in brief: as §1

[29] = target: Neu5Ac(a2-6)GlcNAc(b1-4)GlcNAc(b1-4)GlcNAc
Method in brief: as §1

B1: Si Bti9 1b-V5-his (Solanum lycopersicum) (protein)
chain: MQCNRGCDLALASFYVWRGSNLTLISEMFSTSIADIVSYNNRDNIPNQDSVIAGTRINIPFRCDCLNDGEVLGHAFPYRVKSGDTYDLVARNYSDLTTAQWMMKFNSYPENNIPNTVNLSVVVNCSCGNSDVSKDFGLFVTYPVRAEDNLTSVASAANVSEDIIRRYNPAAVSILDIGQGIIYIPGRDRNGNFPPLPTSTDGLSGGAKKGGRADPAFLYKVVINSKLEGKPIPNPLLGLDSTRTGHHHHHH
glycan array binding signal (z-score) [1]: -0.229 | glycan array binding signal (z-score) [2]: -0.183 | glycan array binding signal (z-score) [3]: -0.231 | glycan array binding signal (z-score) [4]: -0.285 | glycan array binding signal (z-score) [5]: 0.366 | glycan array binding signal (z-score) [6]: -0.308 | glycan array binding signal (z-score) [7]: -0.417 | glycan array binding signal (z-score) [8]: -0.265 | glycan array binding signal (z-score) [9]: -0.221 | glycan array binding signal (z-score) [10]: -0.138 | glycan array binding signal (z-score) [11]: -0.134 | glycan array binding signal (z-score) [12]: -0.19 | glycan array binding signal (z-score) [13]: -0.01 | glycan array binding signal (z-score) [14]: -0.209 | glycan array binding signal (z-score) [15]: 0.306 | glycan array binding signal (z-score) [16]: -0.245 | glycan array binding signal (z-score) [17]: -0.059 | glycan array binding signal (z-score) [18]: -0.394 | glycan array binding signal (z-score) [19]: -0.309 | glycan array binding signal (z-score) [20]: -0.062 | glycan array binding signal (z-score) [21]: -0.17 | glycan array binding signal (z-score) [22]: -0.117 | glycan array binding signal (z-score) [23]: -0.248 | glycan array binding signal (z-score) [24]: -0.363 | glycan array binding signal (z-score) [25]: -0.172 | glycan array binding signal (z-score) (Neu5Ac(a2-6)GalNAc): -0.223 | glycan array binding signal (z-score) [26]: -0.368 | glycan array binding signal (z-score) [27]: -0.316 | glycan array binding signal (z-score) [28]: -0.289 | glycan array binding signal (z-score) [29]: -0.326
